Measurements from PubChem BioAssay AID485294 (National Center for Advancing Translational Sciences (NCATS), 2010).
The whole screen tested about 370,000 compounds, of which about 150 (0.041%) were called active. Inconclusive results, whose numbers are uncertain, are shown with a selection of clear calls. Calls follow the shape of the dose curve; as a rule, active = well fitted inhibition curve with a large enough effect; inconclusive = small, poorly fitted or top-dose-only effect; inactive = flat fitted curve, though single readings scatter. Potencies of inconclusive entries are left out as doubtful fits.

Each molecule was assayed against Beta-lactamase (Escherichia coli (strain K12)) (UniProt P00811) (assay: qHTS Inhibitors of AmpC Beta-Lactamase (assay with detergent)). Settings: AmpC hydrolysis of nitrocefin, absorbance 480 nm, 0.01% Triton; series mostly up to 114 µM.
Sequence of UniProt P00811 (P00811 whole entry, looked up): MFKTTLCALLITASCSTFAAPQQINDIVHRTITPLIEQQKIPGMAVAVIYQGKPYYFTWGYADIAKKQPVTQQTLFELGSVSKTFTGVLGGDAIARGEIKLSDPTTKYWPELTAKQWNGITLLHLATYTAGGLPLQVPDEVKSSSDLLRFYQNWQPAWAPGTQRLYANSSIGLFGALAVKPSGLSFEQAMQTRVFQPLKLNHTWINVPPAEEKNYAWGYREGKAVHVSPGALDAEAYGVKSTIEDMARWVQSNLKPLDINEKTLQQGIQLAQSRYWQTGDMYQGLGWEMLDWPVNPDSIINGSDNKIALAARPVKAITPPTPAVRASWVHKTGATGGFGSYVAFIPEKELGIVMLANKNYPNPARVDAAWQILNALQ
In short: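 AmpC (5.3 nM in the dispensed reagent) in 20 mM phosphate pH 7.0 with 0.01% (detergent screen) or 0.0001% Triton X-100 was preincubated with compounds for 15 min at room temperature. Nitrocefin was then added from an 800 uM solution, and hydrolysis was followed at 480 nm.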
Also: nearly all actives have a fitted effect of over 25% in size.
Potency is read from the fitted curve at half-maximal effect; tags tell the direction and shape of the fitted curve.

SMILES | Potency
CCN1CCN(CCCNC(=O)CNC(=O)c2nn(-c3ccc(OC)cc3)c(=O)c3ccccc23)CC1 | inconclusive [inhibitor, full curve, poor fit]
CCCn1cc(CN2CCC(Oc3ccc(C(=O)N4CCCC4)cc3)CC2)c(C)n1 | inactive
Cc1nn(C(C)C(=O)NCCCN2CCCCC2C)c(=O)c2c1sc1ccccc12 (stereo not given) | inconclusive [inhibitor, full curve, poor fit]
COc1ccc(-c2nn(CCC(=O)O)cc2/C=C2\SC(N)=NC2=O)cc1 | inconclusive [inhibitor, partial curve]
O=C(NCCCN1CCOCC1)C1CCN(S(=O)(=O)c2c(Cl)cccc2Cl)CC1 | inconclusive [inhibitor, full curve]
O=C(NCCC1CCCCN1S(=O)(=O)c1cccs1)C(=O)Nc1ccc(F)cc1F (stereo not given) | inconclusive [inhibitor, single point]
COC(=O)c1ccccc1NC(=O)CN1CCCCC1 | inactive
CC(=O)c1ccc(N2CCN(S(=O)(=O)c3cccc(S(=O)(=O)N4CCOCC4)c3)CC2)cc1 | inconclusive [inhibitor, full curve, poor fit]
O=C(CSc1nc(=O)n2ccccc2n1)NCCc1ccccc1 | inconclusive [inhibitor, full curve, poor fit]
COc1ccccc1-c1ccc(=O)n(CC(=O)NCc2cccs2)n1 | inactive
CCOC(=O)N1CCC(Nc2c(Nc3ccc(C)c(C)c3)c(=O)c2=O)CC1 | inconclusive [inhibitor, full curve, poor fit]
CC(=O)CC(=O)Nc1cccc2c1CCCC2 | inconclusive [inhibitor, single point]
CC(C)Cn1c(=O)c2sccc2n2c(CCCC(=O)Nc3ccc(Cl)cc3)nnc12 | inactive
CSc1nnc(-c2ccc(NC(N)=S)cc2)o1 | inactive
Cc1ccc(-n2sc3ccccc3c2=O)cc1S(=O)(=O)N1CCCCC1 | inactive
CCS(=O)(=O)Nc1ccc(C2=NN(C(=O)c3ccco3)C(c3cccc(F)c3)C2)cc1 (stereo not given) | inactive
CCCCc1nc(Cl)c(CO)n1Cc1ccc(-c2ccccc2-c2nn[nH]n2)cc1 | inconclusive [inhibitor, partial curve]
CC1=CN2C(=NC(=O)CC2(C)C(=O)N(CC(=O)NC2CCCC2)Cc2ccc(Cl)cc2)C=C1 (stereo not given) | inconclusive [inhibitor, full curve, poor fit]
Cc1cc(N/C=C/C(=O)c2ccc(Br)cc2)no1 | inconclusive [inhibitor, single point]
Cc1nc2cc(C(=O)O)ccc2n1-c1ccc(F)cc1F | inconclusive [inhibitor, full curve]
CC(=O)Nc1ccc(S(=O)(=O)N2CCc3c(Cl)cccc3C2)cc1 | inconclusive [inhibitor, full curve, poor fit]
CC(C)(C)C(=O)[C@H]1[C@H](c2ccccc2)[C@@]2(N=C(c3ccccc3)OC2=O)C2c3ccccc3C=NN21 (stereo not given in full) | inconclusive [inhibitor, partial curve]
Cc1ccc(CN(Cc2ccco2)c2cnc(S(C)(=O)=O)nc2C(=O)Nc2ccc(Br)cc2)o1 | inactive
COc1ccccc1-c1noc(CCC(=O)Nc2ccccc2Cl)n1 | inactive

SMILES | Potency
CCn1c(=O)c(C(C)=O)nc2ccccc21 | inconclusive [inhibitor, partial curve, poor fit]
O=C(CN1C(=O)NC2(CCCC2)C1=O)Nc1nc(-c2ccc(F)cc2)cs1 | inactive
CC(C)(C)N1CC23C=CC(C[C@@H]2C1=O)O3 (stereo not given in full) | inconclusive [inhibitor, full curve]
O=C(NCc1cccc(Cl)c1)c1cccn1-c1nnc(N2CCCC2)s1 | inactive
CCN(CC(=O)NCc1ccc(F)cc1)CC(=O)NC1CCCC1 | inactive
Cc1c(NS(=O)(=O)c2ccc(N)cc2)c(=O)n(-c2ccccc2)n1C | inconclusive [inhibitor, partial curve, poor fit]
CC1CCC(NC(=O)c2cccc(S(=O)(=O)NCc3ccccc3)c2)CC1 (stereo not given) | inconclusive [inhibitor, partial curve, poor fit]
COC(=O)C(C)N1C(=O)S/C(=C/c2cc(C)n(-c3ccccn3)c2C)C1=O (stereo not given) | inconclusive [inhibitor, full curve, poor fit]
O=C(NC[P+](=O)O)OCc1ccccc1 | inconclusive [inhibitor, full curve, poor fit]
Clc1ccccc1CN1CCN(c2ccccc2)CC1 | inconclusive [inhibitor, single point]
COC(=O)/C=C1/SC(=Nc2ccc(C)cc2C)NC1=O | inconclusive [inhibitor, full curve, poor fit]
CC(C)(C)C(=O)/C(=C/c1ccc(Cl)cc1)n1cncn1 | inactive
CN(C#N)c1nccc(-c2cccs2)n1 | inactive
COC(=O)C1=C(C)N(CCc2c[nH]c3ccccc23)C(=O)/C1=C\N(C)C | inactive
Cc1ccc(CNC(=O)c2cn(C)c3ccc(S(=O)(=O)N(C)C4CCCCC4)cc3c2=O)cc1 | inactive
CCCN1C(=O)c2cc(C(=O)NCc3cccs3)ccc2C1O (stereo not given) | inconclusive [inhibitor, full curve, poor fit]
CCc1ccc(-n2nc3ccc(NC(=O)c4cc5ccccc5o4)cc3n2)cc1 | inactive
CNCC(O)c1ccc(OC(=O)C(C)(C)C)c(OC(=O)C(C)(C)C)c1 (stereo not given) | inconclusive [inhibitor, full curve, poor fit]
O=C(CCc1ccccc1)NCc1ccc(F)cc1 | inactive
COc1ccccc1N1CCN(Cc2ccc(OC)c(OC)c2OC)CC1 | inconclusive [inhibitor, full curve, poor fit]
C=CCc1cc(/C=C2/NC(=O)NC2=O)cc(OCC)c1O | inactive
Cc1nn(C)cc1CN(C)C(=O)c1nn2c(c1Cl)NC(c1cccs1)CC2C(F)(F)F (stereo not given) | inconclusive [inhibitor, full curve]
Cc1ccc(OCC(=O)N/N=C/c2ccco2)cc1 | inconclusive [inhibitor, full curve]
Cc1cc(F)ccc1N1CCC(N2CCN(C)C(CCO)C2)CC1 (stereo not given) | inconclusive [inhibitor, full curve, poor fit]

SMILES | Potency
CCN(CC)CCc1nc(-c2ccccc2)no1 | inconclusive [inhibitor, full curve, poor fit]
CCc1ccc(C(=O)Nc2ccc3c(c2)n(C)c(=O)n3C)cc1 | inactive
CN1CCCC(OC(=O)c2ccc(C(C)(C)C)cc2)C1 (stereo not given) | inactive
CC(C)(C)NC(=O)Cn1nnnc1-c1nonc1N | inactive
O=C(Nc1ccc(Cl)cc1F)c1cccc2ccccc12 | inconclusive [inhibitor, partial curve]
O=C1CC(c2ccccc2)Cc2[nH]c(=O)c(-c3nc(-c4cccc(Cl)c4)cs3)cc21 (stereo not given) | inactive
COc1ccccc1N1CCN(C(=O)c2cccc(NC3=NC4CS(=O)(=O)CC4S3)c2)CC1 (stereo not given) | inconclusive [inhibitor, full curve, poor fit]
Cc1ccc(N(C(C)C(=O)Nc2ccccc2C(=O)N2CCOCC2)S(C)(=O)=O)cc1C (stereo not given) | inconclusive [inhibitor, single point]
COc1ccc(C2CC(c3ccc4ccccc4c3OC(C)=O)=NN2C(C)=O)cc1 (stereo not given) | inactive
CC(C)c1ccc(OCC(=O)NC2CC(C)(C)NC(C)(C)C2)c(Br)c1 | inactive
O=C1CCCC2=C1C1(CCCC1)N=C(Nc1nc3ccccc3o1)N2 | inconclusive [inhibitor, full curve]
O=C(c1ccc(Cl)c(S(=O)(=O)Nc2ccc(F)cc2)c1)N1CCN(c2ccccn2)CC1 | inconclusive [inhibitor, full curve, poor fit]
O=C(CN1C(=O)CSC1=O)Nc1ccc(F)c(F)c1F | inconclusive [inhibitor, full curve, poor fit]
O=C(CNC(=O)c1ccccc1Br)N/N=C/c1ccco1 | inactive
CN(C)CCCN(C(=O)c1ccc(S(=O)(=O)N2CCCCCC2)cc1)c1nc2cc3c(cc2s1)OCCO3 | inconclusive [inhibitor, partial curve, poor fit]
CCOc1ccc(-c2cc(CCCC(=O)Nc3cccc(OC)c3)no2)cc1 | inconclusive [inhibitor, full curve, poor fit]
Cc1cccc2c(CC(=O)Nc3ccccc3)noc12 | inconclusive [inhibitor, partial curve, poor fit]
CCC1=C/C(=C/N(C)c2ccccc2)C(=O)S1 | inconclusive [inhibitor, full curve, poor fit]
COc1cc2c(cc1OC)CN(CC(=O)Nc1ccc3c(c1)OC(F)(F)O3)CC2 | inconclusive [inhibitor, single point]
O=c1cc(O)n(-c2ccccc2F)c(=S)[nH]1 | inconclusive [inhibitor, full curve, poor fit]
Cc1ccc(S(=O)(=O)N2CCOCC2)cc1C(=O)N1CC(C)OC(C)C1 (stereo not given) | inconclusive [inhibitor, full curve]
O=c1[nH]c(C(Cl)(Cl)Cl)nc2ccc3ccccc3c12 | inconclusive [inhibitor, full curve]
